# Measured values: the supplement of paper PMC8728848
# Some of the results follow.
# B1: GNL (Galanthus nivalis) (protein)
# chain: MGHHHHHHHHYGTLENGHWLMVGMSIFSKDRTVELRMQDDGKLAIYYNDHCAWQSTAQQVNNAKGAVMQGDGNFCIYDKNGKATWHTNTAAPSGDSHTFVSVQDDGNLVLYKNNGATPIWSSKSNK
# Experiments:
# Assay in all cases: glycan array binding signal (z-score within array); higher = stronger binding
# Details in all cases: glycan notation: IUPAC condensed, linker removed
# [1] = target: Neu5Ac(a2-3)Gal(b1-3)[Fuc(a1-4)]GlcNAc
# Procedure, shortened: (§1)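 The binding signal is a Z-score computed within each array and averaged over linkers. Arrays of the same protein sequence at different concentrations or buffers were also averaged together. Data originate from 3228 arrays in the Consortium for Functional Glycomics database, kept only where the protein sequence was available.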
# [2] = target: Neu5Ac(a2-3)Gal(b1-3)[Fuc(a1-4)]GlcNAc(b1-3)Gal(b1-3)[Fuc(a1-4)]GlcNAc
# Procedure, shortened: as §1
# [3] = target: Neu5Ac(a2-3)Gal(b1-3)[Fuc(a1-4)]GlcNAc(b1-3)Gal(b1-4)[Fuc(a1-3)]GlcNAc
# Procedure, shortened: as §1
# [4] = target: Neu5Ac(a2-3)Gal(b1-3)[GlcNAc(b1-6)]GalNAc
# Procedure, shortened: as §1
# [5] = target: Neu5Ac(a2-3)Gal(b1-3)[Neu5Ac(a2-6)]GalNAc
# Procedure, shortened: as §1
# [6] = target: Neu5Ac(a2-3)Gal(b1-3)[Neu5Ac(a2-6)]GlcNAc(b1-3)[Fuc(a1-3)[Gal(b1-4)]GlcNAc(b1-6)]Gal(b1-4)Glc
# Procedure, shortened: as §1
# [7] = target: Neu5Ac(a2-3)Gal(b1-3)]Neu5Ac(a2-3)Gal(b1-4)]GlcNAc
# Procedure, shortened: as §1
# Neu5Ac(a2-3)Gal(b1-4)Glc = target: Neu5Ac(a2-3)Gal(b1-4)Glc
# Procedure, shortened: as §1
# [8] = target: Neu5Ac(a2-3)Gal(b1-4)GlcNAc
# Procedure, shortened: as §1
# [9] = target: Neu5Ac(a2-3)Gal(b1-4)GlcNAc(b1-2)Man
# Procedure, shortened: as §1
# [10] = target: Neu5Ac(a2-3)Gal(b1-4)GlcNAc(b1-2)Man(a1-3)[GlcNAc(b1-4)][Neu5Ac(a2-3)Gal(b1-4)GlcNAc(b1-2)Man(a1-6)]Man(b1-4)GlcNAc(b1-4)GlcNAc
# Procedure, shortened: as §1
# [11] = target: Neu5Ac(a2-3)Gal(b1-4)GlcNAc(b1-2)Man(a1-3)[Neu5Ac(a2-3)Gal(b1-4)GlcNAc(b1-2)Man(a1-6)]Man(b1-4)GlcNAc(b1-4)GlcNAc
# Procedure, shortened: as §1
# [12] = target: Neu5Ac(a2-3)Gal(b1-4)GlcNAc(b1-2)Man(a1-3)[Neu5Ac(a2-3)Gal(b1-4)GlcNAc(b1-2)Man(a1-6)]Man(b1-4)GlcNAc(b1-4)[Fuc(a1-6)]GlcNAc
# Procedure, shortened: as §1
# [13] = target: Neu5Ac(a2-3)Gal(b1-4)GlcNAc(b1-2)Man(a1-3)[Neu5Ac(a2-6)Gal(b1-4)GlcNAc(b1-2)Man(a1-6)]Man(b1-4)GlcNAc(b1-4)GlcNAc
# Procedure, shortened: as §1
# [14] = target: Neu5Ac(a2-3)Gal(b1-4)GlcNAc(b1-2)[Neu5Ac(a2-3)Gal(b1-4)GlcNAc(b1-4)]Man(a1-3)[GlcNAc(b1-4)][Neu5Ac(a2-3)Gal(b1-4)GlcNAc(b1-2)[Neu5Ac(a2-3)Gal(b1-4)GlcNAc(b1-6)]Man(a1-6)]Man(b1-4)GlcNAc(b1-4)GlcNAc
# Procedure, shortened: as §1
# [15] = target: Neu5Ac(a2-3)Gal(b1-4)GlcNAc(b1-2)[Neu5Ac(a2-3)Gal(b1-4)GlcNAc(b1-4)]Man(a1-3)[GlcNAc(b1-4)][Neu5Ac(a2-3)Gal(b1-4)GlcNAc(b1-4)Man(a1-6)]Man(b1-4)GlcNAc(b1-4)GlcNAc
# Procedure, shortened: as §1
# [16] = target: Neu5Ac(a2-3)Gal(b1-4)GlcNAc(b1-2)[Neu5Ac(a2-3)Gal(b1-4)GlcNAc(b1-6)]Man(a1-6)[Neu5Ac(a2-3)Gal(b1-4)GlcNAc(b1-2)Man(a1-3)]Man(b1-4)GlcNAc(b1-4)GlcNAc
# Procedure, shortened: as §1
# [17] = target: Neu5Ac(a2-3)Gal(b1-4)GlcNAc(b1-2)[Neu5Ac(a2-3)Gal(b1-4)GlcNAc(b1-6)]Man(a1-6)[Neu5Ac(a2-3)Gal(b1-4)GlcNAc(b1-2)Man(a1-3)][GlcNAc(b1-4)]Man(b1-4)GlcNAc(b1-4)GlcNAc
# Procedure, shortened: as §1
# [18] = target: Neu5Ac(a2-3)Gal(b1-4)GlcNAc(b1-3)Gal
# Procedure, shortened: as §1
# [19] = target: Neu5Ac(a2-3)Gal(b1-4)GlcNAc(b1-3)Gal(b1-3)GlcNAc
# Procedure, shortened: as §1
# [20] = target: Neu5Ac(a2-3)Gal(b1-4)GlcNAc(b1-3)Gal(b1-4)GlcNAc
# Procedure, shortened: as §1
# [21] = target: Neu5Ac(a2-3)Gal(b1-4)GlcNAc(b1-3)Gal(b1-4)GlcNAc(b1-2)Man(a1-3)[Neu5Ac(a2-3)Gal(b1-4)GlcNAc(b1-3)Gal(b1-4)GlcNAc(b1-2)Man(a1-6)]Man(b1-4)GlcNAc(b1-4)GlcNAc
# Procedure, shortened: as §1
# [22] = target: Neu5Ac(a2-3)Gal(b1-4)GlcNAc(b1-3)Gal(b1-4)GlcNAc(b1-3)Gal(b1-4)GlcNAc
# Procedure, shortened: as §1
# [23] = target: Neu5Ac(a2-3)Gal(b1-4)GlcNAc(b1-3)Gal(b1-4)GlcNAc(b1-3)Gal(b1-4)GlcNAc(b1-2)Man(a1-3)[Neu5Ac(a2-3)Gal(b1-4)GlcNAc(b1-3)Gal(b1-4)GlcNAc(b1-3)Gal(b1-4)GlcNAc(b1-2)Man(a1-6)]GalNAc
# Procedure, shortened: as §1
# [24] = target: Neu5Ac(a2-3)Gal(b1-4)GlcNAc(b1-3)Gal(b1-4)GlcNAc(b1-3)GalNAc
# Procedure, shortened: as §1
# [25] = target: Neu5Ac(a2-3)Gal(b1-4)GlcNAc(b1-3)Gal(b1-4)GlcNAc(b1-3)[Neu5Ac(a2-3)Gal(b1-4)GlcNAc(b1-3)Gal(b1-4)GlcNAc(b1-6)]GalNAc
# Procedure, shortened: as §1
# [26] = target: Neu5Ac(a2-3)Gal(b1-4)GlcNAc(b1-3)Gal(b1-4)GlcNAc(b1-6)[Gal(b1-3)]GalNAc
# Procedure, shortened: as §1
# [27] = target: Neu5Ac(a2-3)Gal(b1-4)GlcNAc(b1-3)Gal(b1-4)[Fuc(a1-3)]GlcNAc
# Procedure, shortened: as §1
# [28] = target: Neu5Ac(a2-3)Gal(b1-4)GlcNAc(b1-3)GalNAc
# Procedure, shortened: as §1
# [29] = target: Neu5Ac(a2-3)Gal(b1-4)GlcNAc(b1-3)[Neu5Ac(a2-3)Gal(b1-4)GlcNAc(b1-6)]GalNAc
# Procedure, shortened: as §1
binder,measurement,setting,value
B1,glycan array binding signal (z-score),[1],-0.119
same,glycan array binding signal (z-score),[2],-0.172
same,glycan array binding signal (z-score),[3],-0.191
same,glycan array binding signal (z-score),[4],-0.179
same,glycan array binding signal (z-score),[5],-0.279
same,glycan array binding signal (z-score),[6],-0.137
same,glycan array binding signal (z-score),[7],-0.172
same,glycan array binding signal (z-score),Neu5Ac(a2-3)Gal(b1-4)Glc,-0.158
same,glycan array binding signal (z-score),[8],-0.246
same,glycan array binding signal (z-score),[9],-0.177
same,glycan array binding signal (z-score),[10],-0.295
same,glycan array binding signal (z-score),[11],-0.162
same,glycan array binding signal (z-score),[12],-0.1
same,glycan array binding signal (z-score),[13],-0.16
same,glycan array binding signal (z-score),[14],-0.215
same,glycan array binding signal (z-score),[15],-0.226
same,glycan array binding signal (z-score),[16],-0.159
same,glycan array binding signal (z-score),[17],-0.238
same,glycan array binding signal (z-score),[18],-0.159
same,glycan array binding signal (z-score),[19],-0.29
same,glycan array binding signal (z-score),[20],-0.083
same,glycan array binding signal (z-score),[21],-0.147
same,glycan array binding signal (z-score),[22],-0.192
same,glycan array binding signal (z-score),[23],-0.087
same,glycan array binding signal (z-score),[24],-0.152
same,glycan array binding signal (z-score),[25],-0.245
same,glycan array binding signal (z-score),[26],-0.199
same,glycan array binding signal (z-score),[27],-0.181
same,glycan array binding signal (z-score),[28],-0.24
same,glycan array binding signal (z-score),[29],-0.202
